Among the data in PubChem BioAssay AID1346428 (National Center for Advancing Translational Sciences (NCATS), 2018) are activation values, retold here.

Molecules are shown by their SMILES. “And” between values parts separate entries of the source, which are not always exact repeats. Equal values may be shown once. Among all 48,000 compounds or so, about 1,200 (2.5%) were called active. Not shown: some 2% with an inconclusive outcome.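 How the source made its calls: active means activation of at least 60% and not above a set upper limit (about 1 call in 100 departs from these limits); inconclusive means activation of 40% to 60%, or above that upper limit; inactive means activation under 40%.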 Some of the results follow.

The target of the experiment is Probable G-protein coupled receptor 32 (Homo sapiens) (UniProt O75388). The experiment can be described thus: qHTS for Agonists of Human Resolvin D1 Receptor DRV1. The conditions noted are these: CHO-K1 GPR32 beta-arrestin PathHunter luminescence, 90 min; at 76.9 µM; active compounds read high; zero percent set by DMSO-only wells. An outline of the steps: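 Using DMSO wells as EC0, agonist-induced signal was taken as chemiluminescence from beta-Gal reconstituted upon beta-arrestin recruitment to GPR32 in CHO-K1 cells after 90 min compound treatment.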
Chain of UniProt O75388 (O75388 whole entry, looked up): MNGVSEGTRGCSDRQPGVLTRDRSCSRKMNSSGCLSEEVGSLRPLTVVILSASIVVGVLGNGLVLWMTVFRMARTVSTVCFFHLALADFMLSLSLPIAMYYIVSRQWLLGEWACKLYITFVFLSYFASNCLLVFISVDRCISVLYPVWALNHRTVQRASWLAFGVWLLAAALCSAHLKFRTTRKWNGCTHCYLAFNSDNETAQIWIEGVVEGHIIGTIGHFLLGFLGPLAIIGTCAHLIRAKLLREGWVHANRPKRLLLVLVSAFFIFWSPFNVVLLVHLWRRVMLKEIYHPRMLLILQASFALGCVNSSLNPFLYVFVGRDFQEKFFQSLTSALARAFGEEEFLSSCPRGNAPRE
Regarding `COc1ccc(N2CCN(C(=O)CS(=O)(=O)c3cccc4nsnc34)CC2)cc1`, the activation was inactive: 30.7%.

Regarding `CC(=O)N1CCc2cc(Br)cc(S(=O)(=O)N3CCN(c4cccc(C)c4)C(C)C3)c21` (stereo unspecified), the activation was inactive: 9.36%.

Take `COc1cccc(N2CCN(S(=O)(=O)c3ccc4c(c3)CCCN4C(C)=O)CC2)c1`: the activation is inactive: -5.15%.

As for `CCOC(=O)c1c(NC(=O)c2cc(=O)c3ccc(C)cc3o2)sc(C)c1C`, the activation was inactive: 5.04%.

As to `COc1ccc(Cl)cc1NC(=O)c1cc(C)nn1-c1ccccc1`, the activation is inactive: -22.8%.

As to `COc1ccccc1N1CCN(C(=O)c2cn(C)c3ccc(S(=O)(=O)N4CCOCC4)cc3c2=O)CC1`, the activation is inactive: -4.92%.

`CN(C)c1ccc(CNC(=O)CCCn2ccc3cc(S(=O)(=O)N4CCCC4)ccc32)cc1`: the activation was inactive: -19.9%.

As to `COc1ccc(CCN2CCC(CNC(=O)c3cnn(-c4ccccc4)c3C3CCN(C(=O)OC(C)(C)C)CC3)CC2)cc1`, the activation is inactive: -11.1%.

With `Cc1nn(C(C)C(=O)NC2CCC(C)CC2)c(=O)c2cc3sccc3n12` (stereo unspecified), the activation was inactive: -13.9%.

As to `Cc1cc(=O)[nH]c2nnc(SCc3ccc(Cl)cc3)n12`, the activation was inactive: 21.4%.

On to `COC(=O)C1=C(c2ccccc2)c2ccccc2S(=O)(=O)N1CC(=O)Nc1ccc(OC)cc1OC`, for which the activation was inactive: -31.6%.

Take `CCOc1ccc(NC(=O)CN2C(C(=O)OC)=C(c3ccccc3)c3cc(Cl)ccc3S2(=O)=O)cc1`: the activation is inactive: -17.7%.

As to `COc1ccccc1-c1cc(NC(=O)COc2ccc(C)c(C)c2)n(-c2ccccc2)n1`, the activation is inactive: 8.79%.

Consider `COc1ccccc1NC(=O)C1CCN(S(=O)(=O)c2cn(C)cn2)CC1`, for which the activation is inactive: -20.3%.

`Cc1ccc(CNC(=O)CN2CCN(Cc3ccc(F)cc3)C2=O)cc1`: the activation was inactive: 3.85%.

As for `COc1ccc(NC(=O)c2c(NCc3cccc(F)c3)sc3c2CCCC3)c(OC)c1`, the activation was inactive: -14.3%.

Regarding `O=C(NCc1ccccc1)C1CCN(S(=O)(=O)c2ccc3[nH]c(=O)ccc3c2)CC1`, the activation was inactive: 3.29%.

Consider `Cc1cccc(N(C)S(=O)(=O)c2c(C(=O)N3CCCCCC3)c(C)n(C)c2C)c1`, for which the activation is inactive: -16%.

Turning to `O=C(c1ccc(OCCCc2cnc[nH]2)cc1)C1CC1`, the activation was inactive: 3%.

Consider `CCOc1ccc(CCNC(=O)c2cnc3sc(N4CCCCCC4)nn3c2=O)cc1`, for which the activation is inactive: -3.47%.

In the case of `COc1ccc(-c2cc(C(F)(F)F)nc(SCC(=O)NCc3ccc(Cl)cc3)n2)cc1`, the activation was inactive: -14.6%.

As to `CC(C)OCc1cc(CN2CCN(c3ccccc3)CC2)c(O)c2ncccc12`, the activation was inactive: -7.62%.

For the molecule `Cc1cccc2c1-c1sc(C(=O)N3CCN(c4cccc(Cl)c4)CC3)cc1CO2`, the activation is inactive: -20.3%.

In the case of `COc1ccc(OC)c(NC(=O)CN2CCCN(Cc3cc(C)ccc3C)S2(=O)=O)c1`, the activation was inactive: -16.7%.

In the case of `O=C(CSc1nccn1Cc1ccc(Cl)cc1)NCc1ccccc1`, the activation is inactive: -2.72%.

In the case of `COc1ccccc1CNC(=O)C(CC(C)C)N1Cc2ccccc2C1=O` (stereo unspecified), the activation is inactive: -7.46%.

`O=C(CN1C(=O)C2(SCC(=O)N2c2ccc(F)c(F)c2)c2ccccc21)Nc1ccccc1F` (stereo unspecified): the activation was inactive: -14.3%.

For the molecule `CC1=C(C(=O)Nc2ccc(F)cc2F)C2(CCCCCC2)OC1=O`, the activation was inactive: -21.6%.

For `Cc1cccc(CC(=O)NCCc2csc(-c3ccc(C(F)(F)F)cc3)n2)c1`, the activation was inactive: -10.1%.

For the molecule `Cc1ccc(C)c(C(=O)COC(=O)CCCC(=O)Nc2cc(C(F)(F)F)ccc2Cl)c1`, the activation is inactive: -2.68%.

For the molecule `Cc1cc(C)c(NC(=O)CSc2nc(-c3ccc(F)cc3)nc3c2Cc2c(CO)cnc(C)c2O3)c(C)c1`, the activation was inactive: 0.855%.

`CCCCCCCCCCCC(=O)[O][Sn]([CH2]CCC)([CH2]CCC)[O]C(=O)CCCCCCCCCCC`: the activation was inactive: 28.9%.

With `COc1ccc(S(=O)(=O)N(CC(=O)Nc2cccc(C)c2)c2ccc(C)cc2)cc1OC`, the activation is inactive: -2.74%.

For the molecule `CCOc1ccc(CCNC(=O)c2[nH]c3cc(OC)ccc3c2Sc2ccccc2)cc1OCC`, the activation is inactive: -26.9%.

For `CC(C)CN(CCCNC(=O)CN1N=C(c2ccccc2)CCC1=O)CC(C)C`, the activation was inactive: -15.1%.

Take `O=C(Cn1ncc2c3ccccc3n(Cc3ccccc3F)c2c1=O)N1CCCCC1`: the activation was inactive: -9.45%.

As for `CCCCSCCCNC(=O)C1CCN(Cc2nc(-c3cccc(Br)c3)oc2C)CC1`, the activation was inactive: 26%.

As for `COc1ccccc1CNC(=O)c1ccc(N2CCCC2)c(NC(=O)NCc2ccc(F)cc2)c1`, the activation is inactive: -19.1%.

As for `CCOC(=O)C1=C(CN(CC)Cc2ccccc2)NC(=O)NC1c1ccc(OC(C)C)cc1` (stereo unspecified), the activation is inactive: -13.3%.

`COc1ccc(N2CCN(c3ccc(-c4nc(-c5cccc(C)c5)no4)cc3[N+](=O)[O-])CC2)cc1`: the activation was inactive: 10.1%.

In the case of `O=C(NCCC1=CCCCC1)c1ccc2c(c1)N(Cc1cccc(Cl)c1)C(=O)c1ccccc1S2(=O)=O`, the activation was inactive: -22.9%.

For `CC(=O)c1cc2c(cc1NC(=O)c1cnn(-c3ccc(C)cc3)c1-n1cccc1)OCO2`, the activation was inactive: -6.05%.

As for `CCOc1ccc(S(=O)(=O)c2cn(Cc3ccc(OC)cc3)c3ccc(F)cc3c2=O)cc1`, the activation was inactive: -5.09%.

Take `CCOc1ccc(C(=O)N2CCN(CCc3ccccn3)CC2)cc1`: the activation was inactive: 5.44%.

In the case of `Cc1nn(-c2ccc(N3CCCC3)nn2)c(C)c1CCC(=O)NCc1ccc(OC(C)C)cc1`, the activation is inactive: -12.3%.

In the case of `Cn1c(=O)[nH]c(=O)c2c1nc1n2CCN1c1ccccc1`, the activation is inactive: -10.4%.

In the case of `CCOc1ccc(NC(=O)Cn2c(=O)cc(C)c3c(C)nn(-c4cccc(Cl)c4C)c32)cc1`, the activation is inactive: 0.235%.

On to `CCOC(=O)CC(NC(=O)CCc1c(C)nc2ncnn2c1C)c1ccc(OC(C)C)cc1` (stereo unspecified), for which the activation was inactive: -1.26%.

On to `CC(C)c1ccc(NC(=O)CCNS(=O)(=O)c2ccc3c(c2)CCCC(=O)N3)cc1`, for which the activation was inactive: 2.6%.

For `CCOC(=O)c1ccccc1NC(=O)CSc1cn(CC(=O)N2CCOCC2)c2ccccc12`, the activation is inactive: -11.1%.

Turning to `COc1ccc(CNC(=O)C2CCC(CNS(=O)(=O)c3cccs3)CC2)cc1` (stereo unspecified), the activation was inactive: 38.5%.

Turning to `Cc1ccccc1CSc1nc2cccnc2n1Cc1ccc(C(=O)NC2CC2)cc1`, the activation is inactive: -8.62%.

In the case of `CCOc1ccc(Nc2nc(C)c(NC(=O)c3cccc(OC)c3)c(Nc3ccc(OCC)cc3)n2)cc1`, the activation was inactive: -8.06%.

For `Cc1ccc(-c2nc(S(=O)(=O)c3ccc(C)cc3)c(N3CCCCCC3)o2)cc1`, the activation is inactive: -8.72%.

`Cc1ccc(N2CCN(S(=O)(=O)c3nnc(NC(=O)c4ccc(C(C)C)cc4)s3)CC2)cc1`: the activation was inactive: 9.59%.

For `O=C(O)c1cc2cc(F)ccc2[nH]1`, the activation is inactive: 1.4%.

As for `COc1ccc(F)cc1S(=O)(=O)NCCc1csc(-c2ccc(Cl)cc2)n1`, the activation was inactive: 35.8%.

Regarding `CCOc1ccc(-c2cn(-c3ccc(OC)cc3)c(SCC(=O)Nc3ccccc3Cl)n2)cc1`, the activation was inactive: -24.9%.

`CCc1ccc(NC(=O)C2CCN(c3nnc(-n4c(C)ccc4C)s3)CC2)cc1`: the activation was inactive: -21.5%.

Turning to `CC(=O)c1ccc(NC(=O)CSc2cn(CC(=O)N3CCCCC3)c3ccccc23)cc1`, the activation is inactive: -5.24%.

For `CCC(=O)Nc1sc2c(c1C(=O)Nc1ccc(OC)cc1)CCC(C(C)(C)C)C2` (stereo unspecified), the activation was inactive: 11.5%.

`Cc1cc(C)c(S(=O)(=O)NCCc2cc3c(C)ccc(C)c3[nH]c2=O)c(C)c1`: the activation is inactive: 1.6%.

For `Cc1ccc(NC(=O)C2Cc3ccccc3N2C(=O)c2ccccc2)cc1Cl` (stereo unspecified), the activation was inactive: -7.14%.

For the molecule `O=C(Nc1ccc(S(=O)(=O)N2CCC(c3nc4ccccc4s3)CC2)cc1)c1ccc(F)cc1`, the activation was inactive: -1.82%.

As for `CCCC(=O)NCCc1nc2ccccc2n1Cc1c(F)cccc1Cl`, the activation was inactive: 1%.

On to `Cc1ccc(C)c(-n2nnc(-c3nc(-c4ccc(Cl)cc4)no3)c2N)c1`, for which the activation was inactive: 14.8%.

In the case of `COc1ccc(NC(=O)c2sc3nc(C)c(C(=O)Nc4ccc(C)cc4C)c(-c4ccc(Cl)cc4)c3c2N)cc1`, the activation was inactive: 7.36%.

Consider `O=C(NCc1ccc2c(c1)CCN2C(=O)c1ccncc1)c1cccc(Cl)c1`, for which the activation is inactive: -6.66%.

With `COc1ccc(OC)c(NC(=O)CSC2=Nc3ccccc3C3=NC(CC(=O)NCc4ccco4)C(=O)N23)c1` (stereo unspecified), the activation is inactive: -27.9%.

For `N#Cc1ccc(C(=O)Nc2ccc(Cl)c(-c3nc4cc(Cl)ccc4o3)c2)c(F)c1`, the activation is inactive: -16.7%.

For `Cc1oc(-c2ccccc2F)nc1CS(=O)(=O)CC(=O)N1CCN(c2cccc(C(F)(F)F)c2)CC1`, the activation was inactive: 46.5%.

Turning to `NNC(=O)c1ccncc1`, the activation is inactive: -18.7%.

With `CN(C(=O)CCCOc1ccc2[nH]c(=O)ccc2c1)C1CCCCC1`, the activation is inactive: 12.8% and inactive: 3.1%.

Turning to `COc1cc(OC)cc(C(=O)Nc2cc(-c3nc4ccccc4s3)ccc2OC)c1`, the activation was inactive: -9.71%.

With `Cc1ccc(C(=O)NCC(c2cccs2)S(=O)(=O)c2cccs2)cc1C` (stereo unspecified), the activation was inactive: 14.4%.

On to `CCOc1ccc(NC(=O)CN(C)S(=O)(=O)c2ccc3c(c2)c(=O)n(C)c(=O)n3C)cc1`, for which the activation was inactive: -2.81%.

For `CCN(C(=O)c1nn(-c2ccc(OC)c(Cl)c2)c(=O)c2c1c1ccccc1n2C)c1cc(OC)ccc1OC`, the activation is inactive: -6.26%.

For the molecule `Cc1ccc(NC(=O)c2cccc(NC(=O)N3CCSc4ncccc43)c2)cc1Cl`, the activation was inactive: 8.07%.

Regarding `COc1ccc(N2CCN(C(=O)Cn3ncc4c3-c3cc(C)ccc3OC4)CC2)cc1`, the activation is inactive: -44.1%.

For `COc1ccc(-c2nc3sc(CCNC(=O)C(=O)Nc4cc(C)cc(C)c4)c(C)n3n2)cc1`, the activation is inactive: 1.26%.

For the molecule `CCOC(=O)c1ccc(NC(=O)CN(c2ccc(C)cc2)S(=O)(=O)c2ccc(OC)cc2)cc1`, the activation was inactive: -4.18%.
